# From patent US20200270335A1 (Biogen, published 2020)
# T1: Recombinant human Kremen-2 (R&D Systems), biotinylated (human, UniProt Q8NCW0 26-364, limits assumed, biotinylated with EZ-Link NHS-PEG4-Biotin)
# T1 construct: Bought protein; also called Kremen-biotin
# T1 sequence (looked up): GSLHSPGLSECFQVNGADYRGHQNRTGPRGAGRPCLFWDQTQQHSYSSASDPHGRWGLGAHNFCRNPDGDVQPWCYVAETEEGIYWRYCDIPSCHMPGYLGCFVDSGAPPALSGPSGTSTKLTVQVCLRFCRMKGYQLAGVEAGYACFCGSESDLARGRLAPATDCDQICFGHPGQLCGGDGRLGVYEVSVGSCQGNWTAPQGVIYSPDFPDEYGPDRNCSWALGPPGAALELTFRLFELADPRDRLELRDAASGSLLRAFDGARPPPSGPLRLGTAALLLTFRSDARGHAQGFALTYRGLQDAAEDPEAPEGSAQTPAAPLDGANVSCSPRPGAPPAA
# B1: ACE486 HSA-GS-huDKK2 C2 ([…]), HSA […], wild-type (ligand)
# chain: [skipping about 600 residues]GSHIKGHEGDPCLRSSDCIEGFCCARHFWTKICKPVLHQGEVCTKQRKKGSHGLEIFQRCDCAKGLSCKVWKDATYSSKARLHVCQKI
# notes: From CHO cells; also called pACE486; HSA-hu DKK2 […] C2 […]
# B2: ACE464 HSA-GS-huDKK2 C2 ([…]), wild-type (ligand)
# chain: [skipping about 600 residues]GSHIKGHEGDPCLRSSDCIEGFCCARHFWTKICKPVLHQGEVCTKQRKKGSHGLEIFQRCDCAKGLSCKVWKDATYSSKARLHVCQKI
# notes: From CHO cells; […] give that major form; also called pACE464
# B3: BKM228 HSA-DKK2 ([…]) K216E_H223E (ligand)
# chain: [skipping about 600 residues]GSHIKGHEGDPCLRSSDCIEGFCCARHFWTKICKPVLHQGEVCTEQRKKGSEGLEIFQRCDCAKGLSCKVWKDATYSSKARLHVCQKI
# notes: also called pBKM228; BKNA228
# B4: BKM233 HSA-DKK2 ([…]) K216S_K220S (ligand)
# chain: [skipping about 600 residues]GSHIKGHEGDPCLRSSDCIEGFCCARHFWTKICKPVLHQGEVCTSQRKSGSHGLEIFQRCDCAKGLSCKVWKDATYSSKARLHVCQKI
# notes: also called pBKM233; BKNA233
# B5: ACE504 HSA-huDKK2 C2 K240E/K243E (ligand)
# chain: [skipping about 600 residues]GSHIKGHEGDPCLRSSDCIEGFCCARHFWTKICKPVLHQGEVCTKQRKKGSHGLEIFQRCDCAKGLSCEVWEDATYSSKARLHVCQKI
# notes: also called pACE504
# B6: ACE503 HSA-huDKK2 C2 K202E/K220E (ligand)
# chain: [skipping about 600 residues]GSHIKGHEGDPCLRSSDCIEGFCCARHFWTEICKPVLHQGEVCTKQRKEGSHGLEIFQRCDCAKGLSCKVWKDATYSSKARLHVCQKI
# notes: ACE486 framework; residues 1-20 are the signal peptide; also called pACE503
# B7: BKM232 HSA-DKK2 ([…]) K216S_H223T (ligand)
# chain: [skipping about 600 residues]GSHIKGHEGDPCLRSSDCIEGFCCARHFWTKICKPVLHQGEVCTSQRKKGSTGLEIFQRCDCAKGLSCKVWKDATYSSKARLHVCQKI
# notes: ACE486 framework; residues 1-20 are the signal peptide; also called pBKM232; BKNA232
# B8: ACE506 HSA-huDKK2 C2 K250E (ligand)
# chain: [skipping about 600 residues]GSHIKGHEGDPCLRSSDCIEGFCCARHFWTKICKPVLHQGEVCTKQRKKGSHGLEIFQRCDCAKGLSCKVWKDATYSSEARLHVCQKI
# notes: ACE486 framework; residues 1-20 are the signal peptide; also called pACE506
# B9: ACE507 HSA-huDKK2 C2 S248N/K250S (ligand)
# chain: [skipping about 600 residues]GSHIKGHEGDPCLRSSDCIEGFCCARHFWTKICKPVLHQGEVCTKQRKKGSHGLEIFQRCDCAKGLSCKVWKDATYNSSARLHVCQKI
# notes: ACE486 framework; residues 1-20 are the signal peptide; Partly glycosylated at the engineered 248-NSS site; also called pACE507; S248N/K205S (as misprinted)
# B10: ACE505 HSA-huDKK2 C2 K216E/K250E (ligand)
# chain: [skipping about 600 residues]GSHIKGHEGDPCLRSSDCIEGFCCARHFWTKICKPVLHQGEVCTEQRKKGSHGLEIFQRCDCAKGLSCKVWKDATYSSEARLHVCQKI
# notes: also called pACE505
# B11: BKM227 HSA-DKK2 ([…]) H223E (ligand)
# chain: [skipping about 600 residues]GSHIKGHEGDPCLRSSDCIEGFCCARHFWTKICKPVLHQGEVCTKQRKKGSEGLEIFQRCDCAKGLSCKVWKDATYSSKARLHVCQKI
# notes: ACE486 framework; residues 1-20 are the signal peptide; also called pBKM227; BKNA227
# B12: BKM231 HSA-DKK2 ([…]) K202E (ligand)
# chain: [skipping about 600 residues]GSHIKGHEGDPCLRSSDCIEGFCCARHFWTEICKPVLHQGEVCTKQRKKGSHGLEIFQRCDCAKGLSCKVWKDATYSSKARLHVCQKI
# notes: ACE486 framework; residues 1-20 are the signal peptide; also called pBKM231; BKNA231
# B13: BKM229 HSA-DKK2 ([…]) K216E_K220E (ligand)
# chain: [skipping about 600 residues]GSHIKGHEGDPCLRSSDCIEGFCCARHFWTKICKPVLHQGEVCTEQRKEGSHGLEIFQRCDCAKGLSCKVWKDATYSSKARLHVCQKI
# notes: also called pBKM229; BKNA229
# B14: BKM226 HSA-DKK2 ([…]) K220E (ligand)
# chain: [skipping about 600 residues]GSHIKGHEGDPCLRSSDCIEGFCCARHFWTKICKPVLHQGEVCTKQRKEGSHGLEIFQRCDCAKGLSCKVWKDATYSSKARLHVCQKI
# notes: ACE486 framework; residues 1-20 are the signal peptide; also called pBKM226
# B15: ACE502 HSA-huDKK2 C2 R185N (ligand)
# chain: [skipping about 600 residues]GSHIKGHEGDPCLNSSDCIEGFCCARHFWTKICKPVLHQGEVCTKQRKKGSHGLEIFQRCDCAKGLSCKVWKDATYSSKARLHVCQKI
# notes: R185N was designed as a glycosylation motif; also called pACE502
# B16: BKM225 HSA-DKK2 ([…]) K220N-gly (ligand)
# chain: [skipping about 600 residues]GSHIKGHEGDPCLRSSDCIEGFCCARHFWTKICKPVLHQGEVCTKQRKNGSHGLEIFQRCDCAKGLSCKVWKDATYSSKARLHVCQKI
# notes: ACE486 framework; residues 1-20 are the signal peptide; K220N was designed as a glycosylation motif; also called pBKM225; HSA-huDKK2 C2 K220N
# B17: BKM230 HSA-DKK2 ([…]) R197E (ligand)
# chain: [skipping about 600 residues]GSHIKGHEGDPCLRSSDCIEGFCCAEHFWTKICKPVLHQGEVCTKQRKKGSHGLEIFQRCDCAKGLSCKVWKDATYSSKARLHVCQKI
# notes: ACE486 framework; residues 1-20 are the signal peptide; also called pBKM230
# Biological target: T2, LRP6 of Super TopFlash (STF, HEK293) cells (UniProt O75581 20-1613, limits assumed)
# Assay: cell-based or functional assay
row,"IC50, inhibition of Wnt3a stimulated Super TopFlash luciferase reporter",Binder
1,92 nM,B1
2,51 nM,B2
3,130 nM,B3
4,82 nM,B4
5,57 nM,B5
6,410 nM,B6
7,110 nM,B7
8,170 nM,B8
9,66 nM,B9
10,190 nM,B10
11,34 nM,B11
12,300 nM,B12
13,150 nM,B13
14,130 nM,B14
15,96 nM,B15
16,130 nM,B16

# Biological target: T2, LRP6 of Super TopFlash (STF, HEK293) …
# Assay: cell-based or functional assay
# Remark: another data set of the same source
row,% pLRP6/LRP6 at 1000 nM HSA-DKK2,Binder
1,68%,B2
2,73%,B3
3,79%,B4
4,64%,B5
5,81%,B10
6,110%,B13

# Biological target: T1, Recombinant human Kremen-2 (R&D …)
# Assay: ELISA, Kremen-biotin on plate-coated HSA-huDKK2-C2
row,binding result,Binder
1,binds,B2

# Biological target: T1, Recombinant human Kremen-2 (R&D …)
# Assay: ELISA, Kremen-biotin on plate-coated variant, against ACE464
row,Percent of ACE464 binding @ 5 µg/ml,Binder
1,52%,B3
2,34%,B4
3,62%,B5
4,40%,B6
5,64%,B7
6,122%,B8
7,117%,B9
8,80%,B10
9,63%,B11
10,73%,B17
11,87%,B12
12,49%,B13
13,44%,B14
14,64%,B15
15,53%,B16

# Biological target: T3, human LRP6 on huLRP6-expressing BaF3 cells (human, UniProt O75581 20-1613)
# T3 construct: whole, on cells; also called Lipoprotein receptor like protein 6
# Assay: FACS competition on huLRP6-expressing BaF3 cells; free LRP6 detected with anti-LRP6 antibody YW211.31.57
row,IC50,Binder
1,59 nM,B1
2,72 nM,B2
3,300 nM,B3
4,65 nM,B4
5,140 nM,B5
6,61 nM,B7
7,300 nM,B8
8,42 nM,B9
9,1000 nM,B10
10,21 nM,B11
11,900 nM,B17
12,400 nM,B12
13,800 nM,B13
14,51 nM,B14
15,120 nM,B15
